Paper PMC12040169 (PLOS Biology, 2025)
The list shows a part of the results.

These compounds were tested on T1, C. trachomatis L2/434/Bu expressing GFP (CTL2-GFP). Settings: total inclusion area; 28.5 h, 10 µM; inhibitor.
T1 construct: L2/434/Bu GFP intracellular growth in HeLa cells
Design: species or system HeLa; C. trachomatis total inclusion area by high-content imaging, normalised to DMSO
Outline: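 Following bulk GFP and resorufin fluorescence reads, infected cells were fixed, Hoechst-stained and imaged on a high-content platform. Inclusion total area and number per well served as growth proxies; nuclei counts indicated host viability. MICs were derived as for the fluorescence assay.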

In order of rising “% of control remaining” value:
1. Cc1cc(NC(=O)N(Cc2cnn(C)c2)CC(C)C)ccc1F [CBK304206]  22.2471
2. O=C(NCc1c(Cl)cccc1Cl)N(Cc1cccnc1)Cc1ccc2c(c1)OCO2 [CBK159450]  38.7346
3. CCN(CC)C(=O)COc1ccc(NC(=O)Nc2cc(C)on2)cc1Cl [CBK305734]  42.6113
4. Cn1c(=O)c2c([nH]c(=S)n2CCCc2ccccc2)n(C)c1=O [CBK288411]  46.4652
5. COc1ccccc1OCCOc1ccc(/C=N/n2cnnc2)cc1 [CBK263295]  50.1281
6. CN1CC2(CCCN(Cc3nnc(-c4cccnc4)o3)C2)OC1=O (stereo not shown) [CBK306888]  50.4351
7. CC(C)(c1ccccc1)c1ccc(OCCNCCN)cc1 [CBK265102]  57.3924
8. CC(c1ccc(F)c(F)c1)N(C)C(=O)Cn1[nH]c(=O)ccc1=O (stereo not shown) [CBK305810]  57.9093
9. O=S(=O)(CCN1CCC2(CC1)CN(CCO)c1ccccc12)c1ccccc1 [CBK126758]  58.3046
10. COC12CCCC(C(=O)O)(CCC1)C2 [CBK038238]  58.467
11. O=C(c1cccnc1)N1CCC(c2cc3ccccc3cn2)CC1 [CBK284891]  62.9972
12. O=C(NCCn1nc(-c2ccco2)ccc1=O)c1ccccc1F [CBK283742]  65.5331
13. Cc1c(C(=O)NCCN2CCCC(C(N)=O)C2)[nH]c2c(F)cccc12 (stereo not shown) [CBK306877]  65.5664
14. CCNc1cncc(-c2ccc(F)c(Cl)c2)n1 [CBK065322]  65.6859
15. OCC(CNc1ncnc2nc[nH]c12)Cc1ccccn1 (stereo not shown) [CBK304412]  66.5868
16. Nc1nc(Cl)cc(Sc2ccc3ccccc3c2)n1 [CBK021630]  67.5682
17. COc1ccc([C@@]23CCN(C(=O)c4ccc(Cl)c(Cl)c4)C[C@@H]2CN(C)C3)cc1OC [CBK074308T]  67.7156
18. CSCc1nnc(SCc2ccccc2Oc2ccccc2)o1 [CBK296743]  67.9309
19. Cc1nn(C)cc1C(=O)N1CCCCC1c1nc2ccccc2[nH]1 (stereo not shown) [CBK283779]  71.1553
20. CCCNc1cncc(-c2cccnc2)n1 [CBK037921]  72.4981
21. O=S(=O)(CCc1ccccn1)N1CCC(Cc2ccccc2)CC1 [CBK043632]  73.8108
22. Cc1ccc(S(=O)(=O)c2cncc(N3CCNCC3)n2)cc1 [CBK051166C]  76.8165
23. CCNC(=O)c1c(O)c2ccccc2[nH]c1=O [CBK262450]  78.5868
24. COc1ccc(-c2ccc3c(c2)C(=O)N2CC[C@H](N)C[C@H]2C(=O)N3)c(OC)c1 [CBK289560]  80.3386
25. Cc1ccc(-c2oncc2C(=O)N2CCC(n3c(=O)[nH]c4ccccc43)CC2)cc1 [CBK149180]  80.6176
26. Cc1ccc(C)n1-c1cccc(C(=O)N2CCn3cnnc3C2)c1 [CBK283646]  81.064
27. Cc1ccc(N(Cc2ccccc2OC(=O)c2cccnc2)C2=NS(=O)(=O)c3ccccc32)cc1 [CBK265760]  82.4245
28. CC(=O)Nc1ccc(-c2cccc(COC3CCN(C(=O)Cc4ccc(Cl)c(Cl)c4)CC3)c2)cc1 [CBK149487]  82.5561
29. CC(=O)c1ccc(-c2nc(NS(C)(=O)=O)cc3cccnc23)cc1 [CBK061874]  84.6319
30. Cc1cc(C)cc(-c2ccc(CC3(C(=O)NC(C)CO)CCOCC3)cc2)c1 (stereo not shown) [CBK286523]  89.3497
31. O=C(CC1CCN(C(=O)CC2CCCCC2)CC1)Nc1ccccc1CN1CCCC1 [CBK286046]  89.5666
32. C[C@@H](Cn1nnc2ccccc21)NC(=O)Cc1cccs1 [CBK282312]  89.8397
33. CC(C)(C)c1ccc(C(=O)NCCNC(=O)c2nonc2N)cc1 [CBK268869]  89.8774
34. O=C(O)c1cccc(NS(=O)(=O)c2ccc(-c3cc(C(F)(F)F)on3)s2)c1 [CBK155722]  90.5634
35. CN1CCN(C2Cc3ccccc3Sc3c(O)cccc32)CC1 (stereo not shown) [CBK026200G]  90.9574
36. COc1ccc(CN2CCN(Cc3cccnc3)CC2)cc1OC [CBK074409G]  91.3153
37. CCCC(C(=O)O)C(C)CC(=O)Nc1ccccc1Cl (stereo not shown) [CBK286927]  93.8173
38. N#CCCN1CCCC2(C1)NCCc1c2[nH]c2ccccc12 (stereo not shown) [CBK040031]  94.1506
39. Cc1nn(C)c(C)c1NC(=O)COc1ccc2c(c1)CCCC2=O [CBK304963]  94.2817
40. O=C(NCc1ccco1)c1cc(-c2ccc(Cl)cc2)cnc1N1CCOCC1 [CBK076352]  94.3041
41. CC(C)(C)c1cn2c3ccccc3nc2n1CCO [CBK273412]  94.3894
42. CCn1c2ccccc2c2cc(C(N)=O)c(N)nc21 [CBK019787]  95.4332
43. COc1ccc(CCNC(=O)c2cc3c([nH]c2=O)CCC3)cc1C [CBK281627]  95.8034
44. NCc1ccc(OC2CCNCC2)cc1 [CBK003920T]  97.3532
45. O=C(NC[C@H]1CC[C@H](c2nnc(-c3ccsc3)o2)CC1)C1CC1 [CBK283361]  98.5274
46. Oc1cccc(OCCOc2nccnc2N2CCCC2)c1 [CBK115756]  99.199
47. COCC(=O)N[C@H]1CCN2C(=O)c3cc(-c4ccc(F)cc4F)ccc3NC(=O)[C@@H]2C1 [CBK289561]  99.2073
48. O=C(OCCc1ccncc1)N1Cc2ccccc2C1 [CBK200141]  99.3804
49. O=C(Nc1ccc2c(c1)OCCO2)c1cnc(-c2ccc(Cl)cc2)c(-c2cccnc2)c1 [CBK037528]  99.5066
50. O=C(O)CCC(=O)N1CC[C@H]2NC(=O)N(c3ccc(F)cc3)C(=O)[C@H]21 [CBK289329]  100.156
51. COc1ccc(-n2c(C)c([N+](=O)[O-])c3ccc(O)c(CNCCCO)c32)cc1 [CBK263504C]  100.234
52. COc1cccc(CN2CCCC3(C2)c2[nH]c4ccccc4c2CCN3C(C)=O)c1 (stereo not shown) [CBK039634]  100.284
53. CN(C(=O)c1ccccc1)[C@]1(C)C2CC(C[C@@H]2O)C1(C)C (stereo partly shown) [CBK010498]  100.317
54. CCC(c1ccc(F)cc1)N(C)C(=O)Cn1cccc(C(=O)Nc2ccc(F)cc2)c1=O (stereo not shown) [CBK286061]  100.429
55. O=C(c1cc[nH]n1)N1CCCC(c2cc3ccccc3cn2)C1 (stereo not shown) [CBK284921]  100.434
56. COc1ccc2[nH]cc(CCNC(=O)C3CC(=O)c4ccccc43)c2c1 (stereo not shown) [CBK116221]  100.457
57. O=[N+]([O-])c1ccc(CSc2nnc(-c3cccnc3)n2Cc2ccco2)cc1 [CBK264580]  101.745
58. COC(=O)c1c(COC(=O)c2cnc(Cl)c(Cl)c2)nc2ccccc2c1C [CBK296940]  105.049
59. Cc1c(C(=O)Nc2ccc(OCc3ccccc3F)cc2)sc2nc[nH]c(=O)c12 [CBK285834]  105.225
60. O=C(O)c1ccc(NS(=O)(=O)c2ccc3c(c2)OCCO3)cc1 [CBK296129]  105.271
61. N#C/C(=C\c1ccc(-c2cccc(C(=O)O)c2)o1)c1nc2ncc(Br)cc2[nH]1 [CBK265054]  105.657
62. O=C1c2cccc3cccc(c23)C(=O)N1CCCSc1nnc[nH]1 [CBK268894]  106.188
63. CCOC(=O)c1c(NC(=O)CSc2ncnc3sc(C)c(C)c23)sc(C)c1C [CBK266440]  106.523
64. CN1CCC(N2CC[C@@H]3[C@H]2C(=O)NC[C@H](CCC(=O)NCc2ccc(F)cc2)N3C)CC1 [CBK289022]  106.664
65. Cc1ccc(CC(=O)N2CCC(Cc3ccc(-c4cccc(C)c4)cc3)(C(N)=O)CC2)cc1 [CBK285906]  108.836
66. CC(=O)N1CCCc2cc(C(O)CN3CCC(C)CC3)ccc21 (stereo not shown) [CBK282588]  111.14
67. COc1ccc(C2c3cc(OC)c(OC)cc3CC(=O)N2c2ccc(C(=O)O)cc2)cc1 (stereo not shown) [CBK296074]  111.768
68. COc1ccc(C2=NN(c3ccccc3)C(c3ccc(OC)c(OC)c3C(=O)O)C2)cc1 (stereo not shown) [CBK262679]  112.1
69. CC(C)(CSc1ncccn1)NS(=O)(=O)c1ccccc1 [CBK268282]  112.296
70. Cc1ccsc1C(C)NC1CCCN(c2ccn(C)n2)C1=O (stereo not shown) [CBK306419]  112.617
71. CN1CCN(c2cccc(-c3ccccc3Oc3ccccc3)n2)CC1 [CBK037598]  113.227
72. COc1ccc(NC(=S)NC(=O)c2cc3c(C)nn(-c4ccccc4)c3s2)cc1[N+](=O)[O-] [CBK265324]  116.256
73. OC(CN1CCC(O)(c2ccc(F)cc2)CC1)c1ccccc1 (stereo not shown) [CBK282489]  116.419
74. COc1cc(C)c(Nc2cc(-c3ccc4c(c3)OCO4)ncn2)cc1OC [CBK037711]  117.195
75. COc1ccc(-c2cc(C(F)(F)F)c3c(n2)sc2c(=O)cc(O)[nH]c23)cc1OC [CBK270201]  117.668
76. COc1cc(-c2nccnc2NCCc2ccccn2)cc(OC)c1OC [CBK037307]  118.454
77. COc1ccc([N+](=O)[O-])cc1NC(=O)C1(c2ccc(OC)c(OC)c2)CCOCC1 [CBK266243]  119.419
78. Cc1ccc(NC(=O)CN2CCN(Cc3ccc4c(c3)OCO4)CC2)cc1 [CBK074403]  125.716
79. Nc1ncc(-c2ccsc2)nc1NCc1ccncc1 [CBK063614]  158.281
